The text below walks through data of the supplement of paper PMC11417369.

± gives the standard deviation of the averaged measurements. This is one part of the list.

The test deals with PfAP2-I AP2 domain 3 (GST-tagged). Nature of the test: gcPBM binding intensity (ln(normalized median fluorescence intensity)); higher = stronger DNA binding. Summed up:
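GST-tagged P. falciparum DNA-binding domains, expressed in E. coli (about 25 μg on average), were applied for 1 h to an Agilent 4 × 180k array of primer-extended double-stranded 36-bp intergenic genomic probes plus negative controls. The binding buffer was 1× PBS with 1% milk, 0.2 mg/ml BSA, 0.5% salmon testes DNA and 0.03% Triton X-100. Bound protein was detected with Alexa488 anti-GST antibody and scanned at 488 nm. Binding intensity is the highest Masliner-normalised natural-log median intensity across replicate spots of either probe orientation.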
For the sequence “TTTTTTACATTCTGCACACAATTTATTTTTTTTTTT [CACACA_site4188]”, the “gcPBM binding intensity (ln)” value came out at 9.27 ± 0.32.

Consider “TTTTCGCTTTTATAAAATTATATGAAAAAACTAAAA [XGTACX_negctrl_site139]”, for which the “gcPBM binding intensity (ln)” value stood at 7.69 ± 0.41.

Turning to “TTATGGAAAAATATAACACACAATGATTTTTTATAA [CACACA_site1831]”, the “gcPBM binding intensity (ln)” value stood at 7.64 ± 0.48.

As to “TACACAAAAATAAACACACACACATATAAATAAATA [CACACA_site6599]”, the “gcPBM binding intensity (ln)” value was determined as 8 ± 0.18.

For the sequence “CCACTAAAGGCATATACACACATTTTTTAAATTGCC [CACACA_site2839]”, the “gcPBM binding intensity (ln)” value came out at 7.96 ± 0.63.

For the sequence “TGTAATACATGTTGTTGTACAATATCTTTAACTTTT [XGTACX_site1219]”, the “gcPBM binding intensity (ln)” value was determined as 7.79 ± 0.26.

On to “TATAACTATGGGTGTACACATTAATCGTTTTTCTTT [CACACA_site5196]”, for which the “gcPBM binding intensity (ln)” value is 7.92 ± 0.3.

For the sequence “TATTGTAAAAAAGCAAAATTTATCACCTCCTTATTT [CACACA_negctrl_site172]”, the “gcPBM binding intensity (ln)” value was 7.44 ± 0.67.

On to “AATAATAATTTAAAAAGTACATTCTAATAAACACGT [XGTACX_site1444]”, for which the “gcPBM binding intensity (ln)” value was 8.02 ± 0.42.

Regarding “TACTTATTTGATTGGGTGCATATATATAGTATGTAT [GTGCAC_site9845]”, the “gcPBM binding intensity (ln)” value was found to be 11 ± 0.73.

For “TATTTCAAATGTTATGTGCACATATTAATCCTACTT [GTGCAC_site9738]”, the “gcPBM binding intensity (ln)” value worked out at 9.54 ± 0.25.

As for “AATATCTGAAAATAAAGTACAAACATATTATAAATA [XGTACX_site5738]”, the “gcPBM binding intensity (ln)” value was determined as 7.7 ± 0.47.

Turning to “AAATAAAATAAAATAAAATAAAATAAAATAAAATAA [XGTACX_negctrl_site142]”, the “gcPBM binding intensity (ln)” value is 8.01 ± 0.98.

On to “TTATTTATGAGGGTGACACACAAAAGAGTGTTAAGA [CACACA_site277]”, for which the “gcPBM binding intensity (ln)” value is 7.8 ± 0.67.

Consider “AAAAAAAAACACGCATGTACATAAAAATAATCATAC [XGTACX_site1086]”, for which the “gcPBM binding intensity (ln)” value was determined as 7.96 ± 0.57.

In the case of “CTTGTGCTTTATAGGGTGCACATTTTGTTTTGGTAA [GTGCAC_site9899]”, the “gcPBM binding intensity (ln)” value worked out at 11 ± 0.46.

Consider “TGAACACATACATACACACACACAAAAAAAAAAAAA [CACACA_site392]”, for which the “gcPBM binding intensity (ln)” value was 7.97 ± 0.59.

For “TTATTAATTATATATAGTACACATTTCACAGATGGG [XGTACX_site2349]”, the “gcPBM binding intensity (ln)” value came out at 7.99 ± 0.33.

As to “TTTTTTTTTTTTTTTGGTACACATTTTGGTTAATGG [XGTACX_site5109]”, the “gcPBM binding intensity (ln)” value was 8.12 ± 0.64.

Regarding “AAAATTATGCAGTAGGTGCAATACCCTCGGCTTTTT [GTGCAC_site9556]”, the “gcPBM binding intensity (ln)” value amounted to 11.1 ± 0.64.

As for “ATAAAAAGGTTTAAAAAAAAAAAAAAAAAAAAAAAA [CACACA_negctrl_site412]”, the “gcPBM binding intensity (ln)” value is 8.23 ± 0.8.

On to “GATGAAATATCATTACGTACACAATAGTTTGTATTT [XGTACX_site5143]”, for which the “gcPBM binding intensity (ln)” value is 7.81 ± 0.37.

Take “AATAATAATAGAAACACACACACATTTTTAAGAATA [CACACA_site6692]”: the “gcPBM binding intensity (ln)” value stood at 7.78 ± 0.52.

Regarding “TGAAAAAAAAAATGCACACGCATACAGATAATATGT [CACACA_site4526]”, the “gcPBM binding intensity (ln)” value is 8.62 ± 0.51.

For the sequence “ATTATTGCAATTTAATGTACATAATACAAATTTGCC [XGTACX_site2729]”, the “gcPBM binding intensity (ln)” value was 8.38 ± 0.42.

As for “AATGAATAAATAAACACACACACATATATATATATG [CACACA_site18]”, the “gcPBM binding intensity (ln)” value was found to be 7.92 ± 0.47.

For the sequence “TATACGTATACCTATACACACATATATATATATATA [CACACA_site1273]”, the “gcPBM binding intensity (ln)” value came to 9.3 ± 0.49.

On to “TATATTCAAAAAAATTCATTTCTGATTTTTTTTTTT [CACACA_negctrl_site1085]”, for which the “gcPBM binding intensity (ln)” value was determined as 7.11 ± 0.46.

Regarding “TAAAATAAAAATATAGTGCACAGATTTTGATATTTT [GTGCAC_site9696]”, the “gcPBM binding intensity (ln)” value turned out to be 11.2 ± 0.23.

On to “CTTTGTGGTATAGATACACACTATATTAAGATGAAC [CACACA_site5215]”, for which the “gcPBM binding intensity (ln)” value came to 7.67 ± 0.6.

On to “CACATTATGTATCATACACACAAATAGATATATAAC [CACACA_site6434]”, for which the “gcPBM binding intensity (ln)” value was 7.82 ± 0.59.

As for “TGAAGGTTTCAAAAACGTACAAAAAAAAATGTTAGT [XGTACX_site8803]”, the “gcPBM binding intensity (ln)” value came to 7.93 ± 0.83.

In the case of “TTTAGAAATAAATACACACATACATTTTTGTATACA [CACACA_site718]”, the “gcPBM binding intensity (ln)” value was found to be 7.48 ± 0.33.

On to “TTTTTTTTTTATGGTACACACACGCGTATGGTTGCA [CACACA_site1876]”, for which the “gcPBM binding intensity (ln)” value amounted to 8.18 ± 0.65.

In the case of “ATAATAAATGATAGCACACATATGTACATAAATACA [CACACA_site4634]”, the “gcPBM binding intensity (ln)” value turned out to be 8.22 ± 0.36.

For “TATCTTAACAATTAGTGTACAGATAACCAATTAAAA [XGTACX_site3184]”, the “gcPBM binding intensity (ln)” value came to 7.72 ± 0.45.

For “AACATATAAAAATGTGCACACACACCCATATATATA [CACACA_site1525]”, the “gcPBM binding intensity (ln)” value is 9.665 ± 0.007.

For “TTAATCCTTTTTAAAAGTACACATATATATATATAT [XGTACX_site962]”, the “gcPBM binding intensity (ln)” value was 9.38 ± 0.3.

On to “TATATATATATATAATGTACAGAAAAAAAAAAAAAA [XGTACX_site6141]”, for which the “gcPBM binding intensity (ln)” value is 9.4 ± 0.15.

Take “ATATTATATATTTGATGTACATTGAATGAGAGAGAA [XGTACX_site3324]”: the “gcPBM binding intensity (ln)” value was 8.43 ± 0.28.

Consider “AAATCATGTTGAAGGGGTACAAAATATGTAATGTTG [XGTACX_site6222]”, for which the “gcPBM binding intensity (ln)” value is 7.95 ± 0.53.

In the case of “AAATAGAGAAATACAAGTACATACTAAACCAATCTA [XGTACX_site2780]”, the “gcPBM binding intensity (ln)” value was 7.62 ± 0.54.

For “TATAATGTTGATAATAGTACGTATGAGTTCAAAAAA [XGTACX_site988]”, the “gcPBM binding intensity (ln)” value amounted to 7.93 ± 0.61.

Turning to “CAAATCAAAATTAATTAACACACAATTTTAATATTC [CACACA_site8641]”, the “gcPBM binding intensity (ln)” value came out at 7.54 ± 0.49.
